Measured values reported in publication PMC4336329 (PLoS ONE, 2015).
Out of some 310,000 compounds screened, about 14,000 (4.5%) showed an effect of 50% or more. Effects have a minus sign here. Some of the results follow.

What follows are molecules tested against human ether-à-go-go-related gene (hERG) potassium channel (human, UniProt Q12809) (assay: primary screen, population patch clamp on CHO cells stably expressing hERG).
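Further: peak tail current of the secondary pulse compared with the same well before compound.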

human ether-à-go-go-related gene (hERG) potassium channel, sequence (Q12809 whole entry, looked up): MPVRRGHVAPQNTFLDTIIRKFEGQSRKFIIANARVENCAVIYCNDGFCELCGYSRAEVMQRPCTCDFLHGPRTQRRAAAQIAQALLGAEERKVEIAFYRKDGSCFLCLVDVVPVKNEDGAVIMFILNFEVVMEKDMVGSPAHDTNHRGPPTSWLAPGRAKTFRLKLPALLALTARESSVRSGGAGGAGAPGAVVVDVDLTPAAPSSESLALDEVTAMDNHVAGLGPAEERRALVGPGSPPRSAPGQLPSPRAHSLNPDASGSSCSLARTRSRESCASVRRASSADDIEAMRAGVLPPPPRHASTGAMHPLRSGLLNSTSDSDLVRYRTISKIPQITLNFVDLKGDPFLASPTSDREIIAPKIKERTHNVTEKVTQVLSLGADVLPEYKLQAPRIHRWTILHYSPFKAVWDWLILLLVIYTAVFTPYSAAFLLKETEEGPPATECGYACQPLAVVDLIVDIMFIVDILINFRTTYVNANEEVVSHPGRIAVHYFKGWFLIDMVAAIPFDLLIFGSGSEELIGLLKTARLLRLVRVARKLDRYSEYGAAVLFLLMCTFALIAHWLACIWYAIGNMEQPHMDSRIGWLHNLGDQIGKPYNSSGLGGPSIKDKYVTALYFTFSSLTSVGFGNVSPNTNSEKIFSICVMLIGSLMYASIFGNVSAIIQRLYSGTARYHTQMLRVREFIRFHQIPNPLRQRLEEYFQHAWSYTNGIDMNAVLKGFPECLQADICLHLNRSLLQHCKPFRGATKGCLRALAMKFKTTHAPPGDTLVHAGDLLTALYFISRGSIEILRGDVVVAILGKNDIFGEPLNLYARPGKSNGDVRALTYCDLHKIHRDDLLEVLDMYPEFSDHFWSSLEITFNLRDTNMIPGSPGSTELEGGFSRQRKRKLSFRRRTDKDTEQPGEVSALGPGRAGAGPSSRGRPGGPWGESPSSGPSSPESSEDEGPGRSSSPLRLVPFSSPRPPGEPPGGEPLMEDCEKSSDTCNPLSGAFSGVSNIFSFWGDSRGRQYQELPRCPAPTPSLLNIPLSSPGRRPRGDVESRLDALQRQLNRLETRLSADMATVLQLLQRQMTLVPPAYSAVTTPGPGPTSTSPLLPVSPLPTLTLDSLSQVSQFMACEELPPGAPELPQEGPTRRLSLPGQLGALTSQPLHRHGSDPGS

SMILES	hERG current change (%, negative = inhibition) at 10uM
CCCCNc1c(C(=O)OCC)c(C)nc2c1cnn2CC	-12.8%
CC(C)C(C(=O)Nc1ccc(S(N)(=O)=O)cc1)N1C(=O)c2ccccc2C1=O (stereo not drawn)	21.6%
COC(=O)CSc1nnc([C@H](CC(C)C)NC(=O)OC(C)(C)C)o1	-8.19%
CCOc1cc(/C=C/C(=O)NCCc2ccc(S(N)(=O)=O)cc2)ccc1OCC(C)C	-5%
Cc1ccccc1-c1nsc(SCC(=O)NCc2ccc3c(c2)OCO3)n1	0.529%
COc1cccc(C(=O)NC2=NCCS2)c1	16.9%
Brc1ccc2nc3c(n2c1)CCCC3	-30.6%
CCc1ccc2c(c1)c(N=NC1=NC(=O)CS1)c(O)n2C	0.556%
CCn1cc(CNC(=O)/C=C/c2cnn(C)c2)c(C)n1	0.241%
COc1ccc(CNC(=O)[C@@H]2CC=C[C@@H]3CCN(Cc4ccc(Cl)c(Cl)c4)C(=O)[C@@H]32)cc1	-8.85%
CCOC(=O)c1sc(-c2cccs2)nc1C	-1.5%
O=C(/C=C/c1ccco1)Nc1ccccc1N1CCCC1	-20.5%
CCOC(=O)c1cc(C#N)c(N2CCNCC2)nc1C(F)(F)F	-12.3%
CCOC(=O)C1=C(O)/C(=C/N(C)C)N=C1C	2.56%
CCc1ccccc1N(C(=O)c1snc(C(N)=O)c1N)C(C(=O)NCC1CCCO1)c1ccc(C)o1 (stereo not drawn)	-21.9%
CCOC(=O)c1c(C)n(C)c2cc(CN(C)C)c(O)c(S(=O)(=O)c3ccccc3)c12.Cl	-36.3%
O=C(CC1C(=O)NCCN1Cc1cccc(F)c1)NC1CCCCCC1 (stereo not drawn)	-8.34%
O=C(Nc1ccccc1)C1CCCN(S(=O)(=O)c2ccc(-n3cnnn3)cc2)C1 (stereo not drawn)	-15.2%
O=C1c2ccc([N+](=O)[O-])cc2C(=O)N1c1ccc([N+](=O)[O-])cn1	14.5%

SMILES	hERG current change (%, negative = inhibition) at 10uM
COc1ccccc1N(CC(=O)NC1CCCCC1)S(=O)(=O)c1ccccc1	-7.54%
O=C(Nc1nc2ccc(F)cc2s1)Oc1ccccc1	21.9%
CCCNCC1C(Oc2ccc(Cl)cc2Cl)C(=O)N1c1cccc(C)c1C.Cl (stereo not drawn)	8.48%
O=C(c1cccs1)N(c1ccc(Br)cc1)C1C=CS(=O)(=O)C1 (stereo not drawn)	-24.1%
Cc1nc(N2CCOCC2)nc2c1CCCC2	-4.17%
C=CCNC(=O)COC(=O)/C=C/c1cccs1	17.4%
O=C(OCC1OC2OC3(CCCCC3)OC2C2OC3(CCCCC3)OC12)c1ccccc1 (stereo not drawn)	8.18%
Cc1cc(C)c(S(=O)(=O)/N=C2\C=CC(=O)C(Cl)=C2)c(C)c1	9.35%
O=C(NCCN1CCCC(O)C1)c1cc(COc2c(F)cccc2F)on1 (stereo not drawn)	0.136%
CCOC(=O)C1=C(C)N(CCCC(=O)O)C(=O)NC1c1ccccc1 (stereo not drawn)	17.8%
CN(C)c1nc(N)nc(CSc2nnnn2-c2ccc(C(=O)O)cc2)n1	-7.38%
O=C(CSc1nnc(NC(=O)c2ccc(F)cc2)s1)NC1CC1	10.4%
CN(C(=O)CSc1nnc(-c2ccccc2)c(-c2ccccc2)n1)C1CCS(=O)(=O)C1 (stereo not drawn)	-15.8%
CCOc1c(Cl)cnn(-c2ccc(C)cc2)c1=O	9.9%
CC(C)CCOc1ccc(C2CC(=O)N(C)C2=O)cc1 (stereo not drawn)	1.2%
COc1ccccc1C(=O)NCC(=O)NCCc1ccc(Cl)cc1	-13%
Cc1ccc(C)c(NC(=O)CN(C)C(=O)c2cc3ccccc3o2)c1	-1.25%
Cc1ccccc1CS(=O)(=O)c1ccc(C(=O)N2CCC(C)CC2)cc1[N+](=O)[O-]	0.275%
Cc1ccccc1Nc1nc(N)nc(COC(=O)c2ccc(O)cc2)n1	-4.59%

SMILES	hERG current change (%, negative = inhibition) at 10uM
CC(C)n1cc(CN2CCC(C(=O)Nc3cccc(-c4cccc(Cl)c4)c3)CC2)cn1	-85.1%
COc1ccc(N2CCN(S(=O)(=O)c3c(C)[nH]c(C)c3C(=O)N3CCCCC3)CC2)cc1	2.63%
[O-][n+]1ccccc1/C=C/c1ccccc1	3.06%
N=c1oc2ccc([N+](=O)[O-])cc2cc1C(=O)NCc1ccccc1	-4.7%
O=C(CCN1CCOCC1)NNC(=O)Nc1cccc(C(F)(F)F)c1	11.4%
CCCCOC(=O)Cn1c(=O)oc2ccc(C)cc21	5.97%
CCN(CC)C(=O)c1ccc(NC(=O)c2cn(-c3ccccc3)nc2-c2ccc(OC)cc2)cc1	10.4%
CN1CCN(CC(C)(C)NS(=O)(=O)c2ccc(Cl)cc2)CC1	-20.4%
N#Cc1c2n(c3c(=O)n(CC(=O)c4ccc(Br)cc4)cnc13)CCCC2	-21.3%
CC(=O)Nc1nnc(SCC(=O)NCC2CCCO2)s1 (stereo not drawn)	-1.4%
CCOc1ccccc1-c1nnc(SCC(=O)NC2CC2)n1CC	16.1%
Cc1ccc(S(=O)(=O)NCCCN2CCOCC2)cc1C	1.39%
CCCCC(O)(c1ccc(OC)cc1)C(CN1CCOCC1)c1ccccc1.Cl (stereo not drawn)	10.4%
CC(C)CC(COCc1cccc(Cl)c1)N1CCN(C(=O)c2ccc(C(F)(F)F)cc2)CCC1=O (stereo not drawn)	-38.9%
CCOc1ccc(S(=O)(=O)N2CCCC(C(=O)N3CCOCC3)C2)cc1C (stereo not drawn)	14.3%
O=C(N/N=C1\CCc2ccccc21)c1ccc(O)cc1	1.97%
CCC(C)C(NC(=O)C1CCC(C)CC1)C(=O)NCc1cccnc1 (stereo not drawn)	4.79%
O=C(c1cc(C2CC2)on1)N1CCN(c2ccccc2)CC1	-14.1%
Cc1c(Cl)cccc1NC(=S)NCC(c1cccnc1)N(C)C (stereo not drawn)	-4.13%
